# From PubChem BioAssay AID2675 (National Center for Advancing Translational Sciences (NCATS), 2010)
# The campaign covered roughly 280,000 compounds. About 100 (0.036%) were called active. The shares of active, inactive and inconclusive entries below differ from those in the screen. Calls follow the shape of the dose curve; as a rule, active = well fitted inhibition curve with a large enough effect in the signal ratio, with a control signal flat (not every such curve was filed as active); inconclusive = small, poorly fitted or top-dose-only effect, or effect the other way, or a change in a side signal; inactive = no such curve, though single readings can be large or run the other way; the % refers to the signal ratio. Potencies of inconclusive entries are doubtful fits and often do not repeat. A note “side channel” means that the fit belongs to a control or component signal, not to the main read-out.
# Molecular target: Muscleblind-like protein 1 (Homo sapiens) (UniProt Q9NR56)
# Chain of UniProt Q9NR56 (Q9NR56 whole entry, looked up): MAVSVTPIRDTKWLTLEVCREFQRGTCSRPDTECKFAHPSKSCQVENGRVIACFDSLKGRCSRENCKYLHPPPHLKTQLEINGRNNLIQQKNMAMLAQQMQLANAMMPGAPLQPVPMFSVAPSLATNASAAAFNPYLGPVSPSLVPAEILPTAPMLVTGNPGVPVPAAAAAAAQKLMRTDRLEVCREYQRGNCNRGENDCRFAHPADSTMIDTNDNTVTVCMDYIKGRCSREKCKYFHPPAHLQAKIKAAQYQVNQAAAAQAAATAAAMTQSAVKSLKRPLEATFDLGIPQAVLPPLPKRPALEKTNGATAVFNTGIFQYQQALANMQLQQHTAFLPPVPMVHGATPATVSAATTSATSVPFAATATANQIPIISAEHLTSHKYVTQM
# Experiment: qHTS Assay for Inhibitors of MBNL1-poly(CUG) RNA binding
# Conditions: TR-FRET MBNL1-His/biotin-(CUG)12 binding, 665/545 ratio; series mostly up to 57.5 µM
# Procedure, shortened: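 His-tagged MBNL1 binding to biotinylated (CUG)12 RNA was measured by TR-FRET using terbium anti-His antibody (0.055 ng/ul final) and streptavidin-XL665 (5 nM final). Compounds were titrated 92 nM to 58 uM; 60 min at room temperature.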
# Potency is read from the fitted curve at half-maximal effect; tags tell the direction and shape of the fitted curve or compound fluorescence and quenching.
row,Structure (SMILES),Potency
1,CCN(CC)c1ccc(/C=c2/sc3nnc(-c4ccccc4C)n3c2=O)cc1,inactive
2,CCCC[n+]1ccc(-c2nc3ccc([N+](=O)[O-])cc3[nH]2)cc1,"inconclusive: 7.08 µM [quencher, side channel, partial curve]"
3,COc1ccc(N2CCN(CC(O)COc3c(OC)cccc3OC)CC2)cc1 (centres undefined),inactive
4,CC(C)Sc1nc2c(cnn2-c2ccc(Cl)cc2)c(=O)[nH]1,inactive
5,CC1(C)CC(c2nc(-c3ccc([N+](=O)[O-])cc3)cs2)CCO1 (centres undefined),"inconclusive: 15.8 µM [quencher, side channel, partial curve]"
6,CC1SC(C)C(=O)N(CC(=O)Nc2ccc([N+](=O)[O-])cc2)C1=O (centres undefined),"inconclusive: 20 µM [quencher, side channel, partial curve]"
7,COc1ccc(O)c(C(=O)c2cnc3c(c2)CN(C)C(=O)N3)c1,"inconclusive: 17.8 µM [quencher, side channel, partial curve]"
8,COc1cc(/C=N/NC(=O)c2ccncc2)ccc1OCC(=O)Nc1ccccc1,"inconclusive: 25.1 µM [quencher, side channel, single point]"
9,COc1ccc(OC)c(-c2csc(CCn3nc(C)cc3C)n2)c1,inactive
10,CC1CCCCN1c1ncnc(N)c1[N+](=O)[O-] (centres undefined),"inconclusive: 35.5 µM [quencher, side channel, single point]"
11,Oc1cccc(/C=N/Nc2ncnc3c2ncn3Cc2ccccc2)c1,"inconclusive: 44.7 µM [quencher, side channel, single point]"
12,CCCCN(C)CCCNC(=O)c1cn(CC)c2ccc(S(=O)(=O)N3CCc4ccccc4C3)cc2c1=O,inactive
13,S=c1nccc(-c2cccs2)[nH]1,"inconclusive: 31.6 µM [quencher, side channel, partial curve]"
14,O=C1Nc2ccc(S(=O)(=O)N3CCCCCC3)c3cccc1c23,"inconclusive: 17.8 µM [quencher, side channel, partial curve]"
15,COc1ccc(C)cc1NC(=O)CSc1nnnn1Cc1ccccc1,"inconclusive: 0.141 µM [quencher, side channel, full curve, poor fit]"
16,COc1ccc(NC(=O)CCN2CCN(C/C=C/c3ccccc3)CC2)cc1,inactive
17,O=S1(=O)CC(O)C(N2CCCCC2)C1 (centres undefined),inactive
18,COc1ccc(Cl)cc1NC(=O)CN(C)CC(=O)Nc1ccc(S(N)(=O)=O)cc1,inactive
19,CN(C)S(=O)(=O)c1ccc(C(=O)Nc2nc(-c3cc4ccccc4o3)cs2)cc1,inactive
20,FC(F)(F)c1cc(-c2ccco2)nc2ncnn12,"inconclusive: 31.6 µM [quencher, side channel, partial curve]"
21,Oc1sc(C=Nc2ccccc2)c2ccccc12,"inconclusive: 31.6 µM [quencher, side channel, partial curve]"
22,COc1ccc(Nc2ncnc3nc[nH]c23)cc1OC,"inconclusive: 0.126 µM [quencher, side channel, partial curve, poor fit]"

row,Structure (SMILES),Potency
1,O=C(NC(=S)Nc1cc(C(F)(F)F)ccc1N1CCOCC1)c1sc2ccccc2c1Cl,"inconclusive: 0.1 µM [fluorescent, side channel, full curve]"
2,O=C(O)CNC(=O)CC1S/C(=N/N=C/c2ccccc2O)NC1=O (centres undefined),"inconclusive: 25.1 µM [quencher, side channel, single point]"
3,NC(=O)C1CCN(C(=O)c2ccc3nc(-c4ccccc4)c(-c4ccccc4)nc3c2)CC1,"inconclusive: 14.1 µM [quencher, side channel, partial curve]"
4,CCOC(=O)c1nn(-c2ccccc2)c(C(=O)OCC)c1N,inactive
5,O=C(c1ccco1)N1CCN(S(=O)(=O)c2ccc(S(=O)(=O)NC3CC3)cc2)CC1,inactive
6,COc1ccc(N(C)C(=O)CCS(=O)(=O)c2cccc3nonc23)cc1,"inconclusive: 10 µM [quencher, side channel, partial curve]"
7,O=C(NC(=S)Nc1ccccc1[N+](=O)[O-])c1ccccc1Cl,"inconclusive: 14.1 µM [quencher, side channel, single point]"
8,Cc1cc2nc(-c3ccc(SCC(=O)Nc4ccc(S(=O)(=O)N5CCCC5)cc4)nc3)[nH]c2cc1C,inactive
9,O=[N+]([O-])c1ccc(N/N=C2\CC3CC=CC23)c([N+](=O)[O-])c1 (centres undefined),"inconclusive: 12.6 µM [quencher, side channel, partial curve]"
10,O=C(NCc1cccnc1)c1ccc(-c2ccccc2[N+](=O)[O-])o1,"inconclusive: 35.5 µM [quencher, side channel, partial curve]"
11,O=C1c2ccccc2C(=O)c2c1cccc2N1CCN(CCO)CC1,"inconclusive: 6.31 µM [quencher, side channel, partial curve]"
12,COc1ccc(OC)c2nc(-c3cccnc3)ccc12,"inconclusive: 11.2 µM [quencher, side channel, partial curve]"
13,COCCn1c(C(F)(F)F)ccc(NC(=O)c2ccccc2)c1=O,"inconclusive: 31.6 µM [quencher, side channel, single point]"
14,CCOc1cccc(/C=N/Nc2ccc(S(=O)(=O)N(CC)CC)cn2)c1O,inactive
15,CCOc1cccc2cc(C(=O)Nc3cc(C)on3)c(=O)oc12,"inconclusive: 2.51 µM [quencher, side channel, full curve]"
16,COc1ccc(/C=C/C(=O)Nc2ccc3nc4n(c(=O)c3c2)CCCC4)cc1,inactive
17,CCCOc1ccc(/C=C2\SC(=S)N(CC3CCCO3)C2=O)cc1 (centres undefined),inactive
18,O=C1CC(CC(=O)N/N=C/c2ccccc2[N+](=O)[O-])=NN1,"inconclusive: 14.1 µM [quencher, side channel, partial curve]"
19,O=C(Nc1ccccc1)c1ccc(NCC2CCCO2)c(S(=O)(=O)N2CCOCC2)c1 (centres undefined),"inconclusive: 39.8 µM [fluorescent, single point]"
20,CN1C(=O)/C(=C/c2ccccc2F)Sc2ccc(C(=O)NCC3CCCO3)cc21 (centres undefined),"inconclusive: 31.6 µM [quencher, side channel, single point]"
21,O=[N+]([O-])c1ccc(Sc2cc[n+]([O-])c3ccccc23)c([N+](=O)[O-])c1,"inconclusive: 5.62 µM [quencher, side channel, partial curve]"
22,CCc1ccc(C(=O)/C=C/c2ccc([N+](=O)[O-])o2)cc1,"inconclusive: 7.08 µM [quencher, side channel, full curve]"

row,Structure (SMILES),Potency
1,Cc1ccc(NC(=O)c2cn(CCC#N)nc2-c2cccs2)c([N+](=O)[O-])c1,"inconclusive: 17.8 µM [activator, single point]"
2,CCOC(=O)c1cc2[nH]c3ccccc3c2[n+](-c2ccc([N+](=O)[O-])cc2)c1C,"inconclusive: 14.1 µM [quencher, side channel, partial curve]"
3,CC(C)c1nnc(NC(=O)c2cc3cc(Br)ccc3oc2=O)s1,"inconclusive: 28.2 µM [quencher, single point]"
4,CC(C)c1ccc(C2NC(=O)NC3=C2CCc2ccccc23)cc1 (centres undefined),"inconclusive: 35.5 µM [quencher, side channel, single point]"
5,O=C(O)c1ccc(NC(CSCc2cccc(F)c2)C(=O)O)c([N+](=O)[O-])c1 (centres undefined),"inconclusive: 12.6 µM [quencher, side channel, partial curve]"
6,COc1ccc(CN=C(Nc2ccccc2)SC2CC(=O)NC2=O)cc1 (centres undefined),inactive
7,CCOc1ccc(NC(=O)CC(NCc2ccccn2)C(=O)O)cc1 (centres undefined),inactive
8,CC(C)c1ccc2[nH]c3nc(SCC(=O)N4CCOCC4)nnc3c2c1,"inconclusive: 14.1 µM [quencher, partial curve]"
9,Cc1cc(C)n(C(=O)c2ccc(Cn3nc(C)c(Br)c3C)o2)n1,inactive
10,CC1(C)COC(c2cc([N+](=O)[O-])ccc2Cl)=N1,"inconclusive: 14.1 µM [quencher, side channel, partial curve]"
11,CCOc1ccc(NS(=O)(=O)c2ccc(SC)cc2)cc1,"inconclusive: 3.16 µM [quencher, side channel, partial curve]"
12,Cn1cc(-c2nc3ccccc3[nH]2)c2ccccc21,inactive
13,CCCCOc1c(Br)cc(/C=N/O)cc1OCC,"inconclusive: 100 µM [inhibitor, single point]"
14,COCCNC(=S)N/N=C(\C)c1cccc([N+](=O)[O-])c1,"inconclusive: 17.8 µM [quencher, side channel, partial curve]"
15,Brc1c(CSc2nc3ccccc3o2)nc2ncccn12,inactive
16,CCc1nnc(NC(=O)CSc2nc3ccccc3s2)s1,"inconclusive: 0.794 µM [quencher, side channel, single point]"
17,Cc1ccc(-n2c(-c3ccccc3)n[nH]c2=S)cc1,"inconclusive: 0.708 µM [quencher, side channel, single point]"
18,CC(=O)Nc1ccc(S(=O)(=O)Nc2nc3ccccc3nc2Sc2nncn2C)cc1,"inconclusive: 28.2 µM [quencher, side channel, partial curve]"
19,Nc1ccc(-c2nc3ccc(N)cc3s2)cc1,"inconclusive: 15.8 µM [quencher, side channel, partial curve]"
20,O=C(NC1CCCCC1)c1ccccc1NC(=O)C1CC1,"inconclusive: 79.4 µM [inhibitor, single point]"
